# The campaign covered roughly 310,000 compounds. About 2,200 (0.71%) showed an effect of 50% or more. Effects have a minus sign here. The list shows a part of the results.
# Target: human ether-à-go-go-related gene (hERG) potassium channel (human, UniProt Q12809)
# Experiment: primary screen, population patch clamp on CHO cells stably expressing hERG
# human ether-à-go-go-related gene (hERG) potassium channel, sequence (Q12809 whole entry, looked up): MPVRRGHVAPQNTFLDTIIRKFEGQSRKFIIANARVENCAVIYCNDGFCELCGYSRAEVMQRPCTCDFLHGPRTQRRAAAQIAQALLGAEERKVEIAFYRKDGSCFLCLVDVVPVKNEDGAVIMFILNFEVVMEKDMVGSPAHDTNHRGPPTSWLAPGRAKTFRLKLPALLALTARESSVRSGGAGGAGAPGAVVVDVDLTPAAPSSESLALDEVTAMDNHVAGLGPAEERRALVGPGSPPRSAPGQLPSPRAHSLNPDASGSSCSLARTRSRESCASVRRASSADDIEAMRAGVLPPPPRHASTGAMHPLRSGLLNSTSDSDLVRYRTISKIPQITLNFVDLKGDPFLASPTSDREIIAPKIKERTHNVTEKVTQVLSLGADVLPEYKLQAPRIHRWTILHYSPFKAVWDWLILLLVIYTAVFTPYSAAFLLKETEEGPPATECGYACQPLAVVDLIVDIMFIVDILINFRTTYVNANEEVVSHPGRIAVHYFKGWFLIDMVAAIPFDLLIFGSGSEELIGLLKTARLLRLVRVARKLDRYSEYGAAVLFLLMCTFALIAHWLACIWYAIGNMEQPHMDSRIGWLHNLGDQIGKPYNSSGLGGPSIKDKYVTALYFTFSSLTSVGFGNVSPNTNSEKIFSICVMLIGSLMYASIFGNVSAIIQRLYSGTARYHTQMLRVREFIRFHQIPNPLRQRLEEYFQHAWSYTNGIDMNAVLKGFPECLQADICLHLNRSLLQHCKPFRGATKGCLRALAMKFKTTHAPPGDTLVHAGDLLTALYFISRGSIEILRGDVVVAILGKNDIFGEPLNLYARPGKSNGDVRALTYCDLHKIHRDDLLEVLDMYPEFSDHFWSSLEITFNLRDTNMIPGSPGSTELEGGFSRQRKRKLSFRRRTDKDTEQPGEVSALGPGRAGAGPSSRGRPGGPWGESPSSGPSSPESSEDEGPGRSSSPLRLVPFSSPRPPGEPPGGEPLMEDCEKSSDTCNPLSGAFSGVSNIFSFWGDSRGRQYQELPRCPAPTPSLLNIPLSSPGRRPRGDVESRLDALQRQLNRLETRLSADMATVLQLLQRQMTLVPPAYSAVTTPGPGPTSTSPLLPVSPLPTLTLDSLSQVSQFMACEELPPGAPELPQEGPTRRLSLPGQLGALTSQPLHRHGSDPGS
row,Compound,"hERG current change (%, negative = inhibition) at 1uM [%]"
1,CCN(CC)C(=O)CSc1nc(COc2ccccc2)nc2ccccc12,8.96
2,CCc1ccccc1N(CC(=O)NC(C)C)C(=O)CCC(=O)Nc1nccs1,7.2
3,Cc1nc2c(-c3ccc(F)cc3)c(C)nn2c(C)c1CCC(=O)NCc1ccco1,-0.188
4,Nc1nc(-c2cccnc2)nn1C(=O)Cc1ccccc1,5.78
5,Cn1cccc1Cc1nnc(SCC(=O)Nc2ccc3c(c2)OCCO3)n1CCc1ccccc1,7.16
6,CCn1ccc(C(=O)Nc2ccc(Cl)cn2)n1,-5.08
7,O=C(Nc1ccc(S(=O)(=O)Nc2nccs2)cc1)c1ccc(F)cc1,-8.07
8,COC(=O)c1cc(C)nc2c1C(=O)C(=O)C=C2N1CCOCC1,12.8
9,O=C(CSc1nc2ccsc2c(=O)n1Cc1ccccc1)NCc1ccco1,-17.3
10,O=C(Nc1sc2c(c1C(=O)O)CCCCC2)c1cccnc1,15.5
11,Cc1ccc(S(=O)(=O)/C(C#N)=C/c2c(N3CCCCC3)nc3ccccn3c2=O)cc1,-0.507
12,Cc1ccc(C(=O)N2CCCC2)cc1Br,10.4
13,Cc1ccc(NC(=O)C(=Cc2ccc(C(=O)O)cc2)C(=O)Nc2ccc(C)cc2C)c(C)c1,8.85
14,COc1cc(Cl)ccc1NC(=S)N(CCN1CCOCC1)C1CCN(C(C)=O)CC1,16.2
15,Cc1cc(S(=O)(=O)N2CCN(c3ccc(F)cc3)CC2)c(C)s1,4.8
16,S=c1[nH]cnc2scc(-c3ccccc3)c12,16.8
17,O=C(Nc1c(C(=O)C2CC2)oc2ccccc12)c1ccc(Cl)cc1,17.7
18,CCOc1cc(NC(=S)NCCCN2CCOCC2)c(OCC)cc1NC(=O)CC(C)C,19
19,Cc1cc2occ(CC(=O)N(C)CC(=O)Nc3ccc(F)cc3)c2cc1C,7.62
20,COc1cc(C(=O)OCC(=O)N2CCCC2)cc2c1OCCO2,11.2
21,COc1ccccc1CNS(=O)(=O)c1ccc(C)cc1,9.61
22,Cc1ccc(O)c(NC(=O)C2CCCN2C(=O)OCc2ccccc2)c1 (stereo not shown),6.15

row,Compound,"hERG current change (%, negative = inhibition) at 1uM [%]"
1,Cc1cc(C(=O)OCC(=O)Nc2ccccc2F)c(C)o1,4.48
2,CCN(CC)S(=O)(=O)c1ccc2[nH]c(=O)cc(C(=O)NCc3ccccc3)c2c1,14.2
3,CCC1(c2ccc(F)cc2)NC(=O)N(CC(=O)Nc2ccccc2Cl)C1=O (stereo not shown),9.67
4,Cc1ccnc(NC(=O)CCC(=O)N(CC(=O)NC2CCCCC2)CC2CCCO2)c1 (stereo not shown),6.01
5,CCN(CC)S(=O)(=O)c1ccc(=O)n(CC(=O)N2CCCc3cc(C)ccc32)c1,-0.402
6,O=C(Nc1ccc(F)cc1)Nc1ccccc1F,13.5
7,Oc1c(Br)cc(/C=N/n2c(-c3ccccc3)n[nH]c2=S)c(Br)c1O,17.1
8,CCCc1ccc(OCC(O)CN2CCc3ccccc3C2)cc1.Cl (stereo not shown),-34.3
9,COC(=O)c1nnn(-c2nonc2N)c1CN1CCc2ccccc21,11.5
10,CCCOc1ccc2cc(C(=O)NCc3ccccc3)c(=O)oc2c1,17.5
11,CCC(C)Sc1nnc(-c2c[nH]c3ccccc23)n1CCOC (stereo not shown),-2.34
12,CCCNC(=O)C1CCCN(S(=O)(=O)c2ccc3c(c2)CC(C)N3C(=O)C2CC2)C1 (stereo not shown),3.64
13,Cc1ccc(Sc2ccc(N)cc2C#N)cc1,5.85
14,Cc1cccc(N2CCN(C(=O)c3ccc(CNc4c(N5CCC(C)CC5)c(=O)c4=O)cc3)CC2C)c1 (stereo not shown),12
15,COc1cc2ccccc2cc1C(=O)Nc1ccccc1Cl,18.3
16,S=C(c1ccc(-c2ccc(Cl)c(Cl)c2)o1)N1CCOCC1,10.8
17,COC(=O)c1ccccc1NC(=O)CNCCc1ccc(OC)c(OC)c1,12.9
18,CCCn1nnc(NC(=O)c2ccc(-c3cccc(Cl)c3)o2)n1,0.301
19,Cc1nc2c3ccccc3nc(NNC(=O)CCC(=O)N3CCCC(C)C3)n2n1 (stereo not shown),16.9
20,Cc1cccc(N(C)C(=O)CN2C(=O)COc3ccc(S(=O)(=O)N4CCCCCC4)cc32)c1,20.8
21,Cc1ccc(-c2c(C)n([O-])c3c([n+]2=O)CCC3)cc1,-3.16
22,CCCCn1c(=O)c(C=Nc2cccnc2Cl)c(O)n(CCCCl)c1=O,-0.359

row,Compound,"hERG current change (%, negative = inhibition) at 1uM [%]"
1,O=C(O)c1cc(O)c2c(c1)[C@@H]([C@H]1c3cc(C(=O)O)cc(O)c3C(=O)c3c(O[C@@H]4O[C@H](CO)[C@@H](O)[C@H](O)[C@H]4O)cccc31)c1cccc(OC3O[C@H](CO)[C@@H](O)[C@H](O)[C@H]3O)c1C2=O (stereo partly shown),6.01
2,CCOc1ccccc1NC1=C(Cl)C(=O)N(Cc2ccccc2)C1=O,-4.05
3,O=C(NCCc1cccs1)C1CC(c2c(Cl)cccc2Cl)=NO1 (stereo not shown),10.6
4,CCN(CC)S(=O)(=O)c1cccc(C(=O)N[C@H](C(=O)NNC(=O)c2ccccc2)C(C)C)c1,11.1
5,COc1ccccc1Nc1nc(N)nc(-c2oc3ccccc3c2C)n1,6.09
6,CCCNC(=O)COC(=O)c1c2c(nc3ccccc13)CCC2,13.7
7,CC1CN(C(=O)c2c(Br)cnn2C)CC(C)O1 (stereo not shown),4.32
8,Cc1ccc(NC(=O)CCN2CCc3ccccc3C2)cc1.Cl,-20
9,O=C1CC(C(=O)O)S/C(=N\N=C\c2ccc(Br)cc2)N1 (stereo not shown),6.37
10,Cn1c(C(=O)O)ccc1S(=O)(=O)N1CCCCCC1,10.3
11,CCOC(=O)c1cc(NC(=O)c2ccc(Cl)cc2)c(=O)oc1-c1ccccc1,-9.79
12,Cc1ccc(C)c(-n2c(-c3csc(C)c3)n[nH]c2=S)c1,11.2
13,N#C/C(=N\Nc1ccc(Cl)c(Cl)c1)C(=O)C1CC1,14.7
14,CCC(C)N(CCNC(=O)CC1Oc2ccc(C)cc2NC1=O)C1CCCCC1 (stereo not shown),-58.1
15,CCCCC(=O)Nc1cc(C)c2c(=O)oc3ccccc3c2n1,12.2
16,C/C(=N/N=C1/NC(=O)CC(C(=O)Nc2ccccc2)S1)c1cccs1 (stereo not shown),7.65
17,Cc1ccc(NC2CCCN(C(=O)CSc3ccccn3)C2)cc1C (stereo not shown),12.5
18,COc1cc(C(=O)O)ccc1OCC(=O)N1CCOCC1,2.74
19,N#Cc1c(N)n(CCNC(=O)c2cccs2)c2nc3ccccc3nc12,10.7
20,CCC(=O)Nc1c(C)nn(C(=O)CC)c1C,-5.78
21,Cn1cccc1C(=O)OCC(=O)Nc1cccc(S(=O)(=O)N2CCOCC2)c1,-3.88
22,N#Cc1ccsc1NC(=O)C1CCN(S(=O)(=O)c2cccs2)CC1,11.2

row,Compound,"hERG current change (%, negative = inhibition) at 1uM [%]"
1,CCOc1ccccc1NC(=O)C1CCN(c2nc(-c3ccc(OC)cc3)no2)CC1,18.3
2,Cc1cc2cc(CN(CC3CCCO3)C(=O)c3cnccn3)c(=O)[nH]c2cc1C (stereo not shown),12.3
3,Cn1nc(-c2ccccc2)c(CO)c1Oc1ccc(F)cc1,-3.39
4,CCc1ccc(C(C)NC(=O)C2CCCO2)cc1 (stereo not shown),8.63
5,COc1ccc(S(=O)(=O)N2CCOCC2)c(Cl)c1Cl,-14.7
6,Cc1nnc(SCC(=O)NCC(=O)Nc2ccc(F)c(F)c2F)n1Cc1ccccc1,17.9
7,COc1ccc(C(=O)NCc2c(C)nn(Cc3ccccc3)c2C)cc1S(=O)(=O)N1CCOCC1,2.84
8,CC(=O)c1cc2ccc(O)cc2oc1=O,11.5
9,CN(Cc1nc(Cc2cccc(F)c2)no1)CC1COCCO1 (stereo not shown),16.1
10,Cc1ccc(NC(=O)COC(=O)C2CCN(c3ccc(C(F)(F)F)cn3)CC2)cc1,4.87
11,Br.Cc1ccc(Nc2nc(-c3ccc(S(=O)(=O)N4CCOCC4)cc3)cs2)cc1Cl,3.44
12,COc1cc(C2C(C(=O)c3ccc(C)o3)=C(O)C(=O)N2Cc2cccnc2)ccc1O (stereo not shown),12
13,COc1ccc(CCN2CC(C(=O)OCC(=O)NC(C)c3cccc(Cl)c3)CC2=O)cc1OC (stereo not shown),5
14,COC(=O)c1c(NC(=O)C2CCCCC2C(=O)O)sc2c1CCCCC2 (stereo not shown),1.8
15,CCCn1nc(-c2ccccc2)c2nc3ccccc3nc21,8.01
16,COc1ccccc1NC(=O)Cc1coc2cc(C)ccc12,-3.83
17,O=C(c1cccc(N2CCCC2=O)c1)N1CCN(c2ccccc2)CC1,10.2
18,CC12CCC(C(=O)Nc3nccs3)(OC1=O)C2(C)C (stereo not shown),1.47
19,Cc1cc(Cl)ccc1NC(=O)CN1C(=O)NC2(CCCc3ccccc32)C1=O (stereo not shown),12
20,NC(=O)c1cc([N+](=O)[O-])ccc1NCc1cccc(N)c1,12.6
21,O=C(O)CCSc1nnnn1-c1ccccc1,-2.77
22,CSCCC(NC(=O)c1ccccc1Cl)C(=O)NNC(=O)c1ccccc1O (stereo not shown),11.7
